Experimental findings from US20240309116A1 (ZHEJIANG SHIMAI PHARMACEUTICAL, published 2024) are described below.

Assay [1] deals with T1, cell surface-associated ROR1 on human cancer cell lines (human, UniProt Q01973 30-937). As to the kind of experiment: cell-based or functional assay.
In assay [2] the target is T1, cell surface-associated ROR1 on human …. As to the kind of experiment: flow cytometry on JEKO-1 cells. Background: Flow cytometry measures light scatter and fluorescence of single cells or particles in a stream.
For assay [3], the target named is T2, CD3 on Jurkat cells (human, UniProt P07766; P04234; P09693; P20963).
T2 construct: also called CD3 positive cell line Jurkat; CD3 expressing Jurkat cell line
T2 sequence (P07766 23-207 limits assumed, chain 1 of 4): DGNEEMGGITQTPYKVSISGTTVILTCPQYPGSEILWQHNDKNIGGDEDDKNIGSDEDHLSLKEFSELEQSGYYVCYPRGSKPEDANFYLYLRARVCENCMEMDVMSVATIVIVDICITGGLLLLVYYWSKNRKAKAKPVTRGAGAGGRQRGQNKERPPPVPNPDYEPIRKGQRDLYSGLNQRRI
T2 sequence (P04234 22-171 limits assumed, chain 2 of 4, further chain): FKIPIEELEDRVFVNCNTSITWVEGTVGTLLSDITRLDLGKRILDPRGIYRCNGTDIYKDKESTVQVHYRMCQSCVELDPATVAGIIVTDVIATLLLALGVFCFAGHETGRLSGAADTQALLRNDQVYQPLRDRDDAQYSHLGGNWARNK
T2 sequence (P09693 23-182 limits assumed, chain 3 of 4, further chain): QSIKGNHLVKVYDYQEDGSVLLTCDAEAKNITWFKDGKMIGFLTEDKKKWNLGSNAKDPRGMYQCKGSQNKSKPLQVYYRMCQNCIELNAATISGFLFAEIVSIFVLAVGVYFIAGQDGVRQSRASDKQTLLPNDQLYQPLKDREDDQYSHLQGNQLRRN
T2 sequence (P20963 22-164 limits assumed, chain 4 of 4, further chain): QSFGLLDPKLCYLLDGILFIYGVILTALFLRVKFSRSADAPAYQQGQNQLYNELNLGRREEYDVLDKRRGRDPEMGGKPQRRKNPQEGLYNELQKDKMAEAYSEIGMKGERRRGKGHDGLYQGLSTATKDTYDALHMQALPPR
Description: flow cytometry on Jurkat cells.

T1 sequence (Q01973 30-937): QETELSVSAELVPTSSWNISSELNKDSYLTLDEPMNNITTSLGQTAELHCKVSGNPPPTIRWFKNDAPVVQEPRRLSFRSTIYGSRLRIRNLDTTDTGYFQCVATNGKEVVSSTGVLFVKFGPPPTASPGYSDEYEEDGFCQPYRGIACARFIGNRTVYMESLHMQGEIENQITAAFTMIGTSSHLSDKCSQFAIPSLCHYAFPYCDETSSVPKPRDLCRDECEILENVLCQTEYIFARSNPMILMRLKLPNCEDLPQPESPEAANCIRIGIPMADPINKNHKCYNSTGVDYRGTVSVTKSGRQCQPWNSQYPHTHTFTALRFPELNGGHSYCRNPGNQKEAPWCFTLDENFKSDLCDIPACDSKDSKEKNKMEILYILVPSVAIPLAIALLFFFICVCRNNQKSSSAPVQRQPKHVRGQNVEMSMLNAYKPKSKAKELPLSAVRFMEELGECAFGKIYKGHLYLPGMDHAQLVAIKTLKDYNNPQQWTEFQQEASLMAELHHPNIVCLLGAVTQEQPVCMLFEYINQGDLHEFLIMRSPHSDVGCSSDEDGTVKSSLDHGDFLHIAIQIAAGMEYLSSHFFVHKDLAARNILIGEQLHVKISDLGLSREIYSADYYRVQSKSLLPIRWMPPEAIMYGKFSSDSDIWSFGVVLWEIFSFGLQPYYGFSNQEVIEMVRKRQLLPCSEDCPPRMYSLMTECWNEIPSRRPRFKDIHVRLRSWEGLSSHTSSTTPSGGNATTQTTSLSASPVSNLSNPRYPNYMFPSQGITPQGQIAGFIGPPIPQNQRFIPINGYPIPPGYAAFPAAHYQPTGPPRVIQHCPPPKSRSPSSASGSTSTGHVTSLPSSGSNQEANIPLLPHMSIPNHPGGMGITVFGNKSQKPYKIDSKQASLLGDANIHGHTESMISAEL

B1: 3A3 HBiTE (bispecific antibody targeting ROR1 and CD3) (bispecific antibody)
heavy: EVQLVESGGGVVQPGRSLRLSCAASGFTFSSYGMHWVRQAPGKGLEWVAVISYDGSNKYYADSVKGRFTISRDNSKNTLYLQMNSLRAEDTAVYYCAKDLDYSLWFDPWGQGTLVTVSSGGGSSGGGGSGGGGSEVQLVESGGGLVQPGGSLRLSCAASGFTFNTYAMNWVRQAPGKGLEWVARIRSKYNNYATYYADSVKGRFTISRDDSKNTLYLQMNSLRAEDTAVYYCARHGNFGSSYVSYFAYWGQGTTVTVSSASTKGPSVFPLAPSSKSTSGGTAALGCLVKDYFPEPVTVSWNSGALTSGVHTFPAVLQSSGLYSLSSVVTVPSSSLGTQTYICNVNHKPSNTKVDKKVEPKS[human IgG1 Fc with T366L Y407H (EU numbers) not spelt out]
light: DVVMTQSPLSLPVTPGEPASISCRSSQSLLQSNGYNYVEWFLQKPGQSPQLLIYLGSYRASGVPDRFSGSGSGTDFTLKISRVEAEDVGVYYCMQGTHWPLFTFGPGTKVDIKGGGGSGGGGSGGGGSEIVVTQSPATLSVSPGERATLSCRSSTGAVTTSNYANWVQQKPGQAPRGLIGGANKRAPGVPARFSGSLSGDEATLTISSLQSEDFAVYYCALWYSNLWVFGQGTKLEIKRTVAAPSVFIFPPSDEQLKSGTASVVCLLNNFYPREAKVQWKVDNALQSGNSQESVTEQDSKDSTYSLSSTLTLSKADYEKHKVYACEVTHQGLSSPVTKSFNRGE[human IgG1 Fc with T366L Y407H (EU numbers) not spelt out]
notes: HBiTE format: anti-ROR1 VL/VH - linker - anti-CD3 hSP34 VL-CL / VH-CH1 - monomeric human IgG1 Fc (mFc7.2, T366L and Y407H); About 120 kDa non-reduced, both chains about 62 kDa reduced; also called ROR1-3A3-HB; 3A3 bispecific antibody
What is called EC50 is the midpoint of the concentration-response curve. A high value points to lower potency in that assay. In the case of B1, in assay [1], the “killing of JEKO-1 cells in the presence of PBMC, EC50” value worked out at 1.1 ng/mL; the “killing of MDA-MB-231 cells in the presence of PBMC, EC50” value was determined as 14 ng/mL; the “killing of SK-HEP-1 cells in the presence of PBMC, EC50” value came out at 0.805 ng/mL. In assay [2], this molecule registered an EC50 of 71.4 nM. In addition, the EC50 in assay [3] was determined as 252 nM.
